Reference: PubChem BioAssay AID588855 (National Center for Advancing Translational Sciences (NCATS), 2011)
Where “and” joins values, the source holds several entries; their conditions need not be identical. Identical values can stand only once. Out of some 410,000 compounds screened, about 5,000 (1.2%) were called active. The shares of active, inactive and inconclusive entries below differ from those in the screen. Calls come from the whole dose curve; as a rule, active = well fitted inhibition curve with a large enough effect; inconclusive = small, poorly fitted or top-dose-only effect; inactive = no such curve, though single readings can be large or run the other way. Where the call is inconclusive, the potency comes from a doubtful curve fit.

Experiment: qHTS for Inhibitors of TGF-b; note: nearly all actives have a fitted effect of over 65% in size
Settings: HepG2 CAGA-GFP TGF-b/SMAD3 reporter, GFP fluorescence, 18 h, TGF-beta stimulated, 500 pg/mL final; series mostly up to 46.1 µM
How it was run: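 HEPG2 CAGA-GFP reporter cells (1000/well, DMEM with 1% FBS) received compounds, then recombinant TGF-beta at 500 pg/mL final for 18 hours at 37 degrees C. Per-cell GFP summed per well was normalised to unstimulated and stimulated DMSO controls before curve fitting.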
Potency is the fitted concentration of half-maximal effect; tags give direction and shape of the fitted curve.

Question: For `COc1ccc(C2(C(=O)NCCCN3CCOCC3)CCOCC2)cc1`, which Potency is on record?
Answer: inconclusive: 4.47 µM [inhibitor, full curve, poor fit]

Question: For `Cc1ccc(CNC(=O)CSc2c(C(C)C)cnc3c2c(=O)n(C)c(=O)n3C)cc1`, which Potency is on record?
Answer: inactive

Question: Which Potency does the source give for `CCc1ccc(NC(=O)C(C)OC(=O)CCC(=O)c2cccs2)cc1` (stereo unspecified) here?
Answer: inconclusive: 11.2 µM [inhibitor, partial curve]

Question: Which Potency does the source give for `CCOc1ccc(-c2[nH]ncc2Oc2ccccc2OCC)c(O)c1` here?
Answer: inconclusive: 22.4 µM [inhibitor, single point]

Question: With `CCNC(=O)COC(=O)C1C(C(=O)OCC)=C(C)NC(C)=C1C(=O)OCC` as the molecule, how does the Potency read?
Answer: inactive

Question: For `C[C@H]1O[C@@H](O[C@H]2[C@@H](O)C[C@H](O[C@H]3[C@@H](O)C[C@H](O[C@H]4CC[C@@]5(C)[C@H](CC[C@@H]6[C@@H]5C[C@@H](O)[C@]5(C)[C@@H](C7=CC(=O)OC7)CC[C@]65O)C4)O[C@@H]3C)O[C@@H]2C)C[C@H](O)[C@@H]1O`, which Potency is on record?
Answer: inconclusive: 2 µM [inhibitor, full curve, poor fit]

Question: With `Cn1nc(C(C)(C)C)cc1NC(=O)C1(C)CCN1C(=O)c1ccccc1CCc1ccccc1` (stereo unspecified) as the molecule, how does the Potency read?
Answer: inconclusive: 22.4 µM [inhibitor, single point]

Question: Which Potency does the source give for `COc1ccc(N2CCN(CCCNC(=O)C(=O)c3c(C)n(C)c4ccccc34)CC2)cc1` here?
Answer: inconclusive: 6.31 µM [inhibitor, single point]

Question: With `CC(C)CN(CC(C)C)S(=O)(=O)N1CCC(C(=O)NCc2cccs2)CC1` as the molecule, how does the Potency read?
Answer: inactive

Question: With `COc1ccc(CCNCC(O)COc2ccc(Cl)cc2)cc1OC` (stereo unspecified) as the molecule, how does the Potency read?
Answer: inactive

Question: With `CC(=O)N1CCN(C(=O)CC2OC(=O)c3ccccc32)CC1` (stereo unspecified) as the molecule, how does the Potency read?
Answer: inconclusive: 35.5 µM [inhibitor, single point]

Question: For `CCN(CC)C(=O)CC(c1cc(OC)c(OC)c(OC)c1)c1c(OC)cc(OC)c2c(-c3ccccc3)cc(=O)oc12` (stereo unspecified), which Potency is on record?
Answer: inconclusive: 2.24 µM [inhibitor, partial curve, poor fit] and inconclusive: 35.5 µM [inhibitor, single point]

Question: Which Potency does the source give for `O=C(O)c1cccc2c1C(=O)c1cccc3snc-2c13` here?
Answer: inactive

Question: With `CCCN1C(=O)C(Cc2nc3ccccc3c(=O)n2CC)c2cc(Br)ccc21` (stereo unspecified) as the molecule, how does the Potency read?
Answer: active: 7.94 µM

Question: Which Potency does the source give for `COc1ccc(Cl)cc1S(=O)(=O)NC(C)C(=O)NCc1ccc2c(c1)OCO2` (stereo unspecified) here?
Answer: inconclusive: 3.16 µM [inhibitor, single point]

Question: For `COc1ccccc1C(=O)NCCC(=O)N1CCN(S(=O)(=O)c2ccccc2C(F)(F)F)CC1`, which Potency is on record?
Answer: inconclusive: 14.1 µM [inhibitor, single point]
